A lower IC50 marks a more sensitive line; a limit (>, <) means that the fit lies beyond the doses tested. AUC is the area under the same curve over the 256-fold range up to the top dose, as a fraction; values near 1 show little effect. For part of these data: Any top dose called inferred comes from the curve model; the source does not state it.
Experiments:
Assay in all cases: Viability of human cancer cell lines after 72 h of drug (GDSC screen)
FH535 = compound: Cc1cc([N+](=O)[O-])ccc1NS(=O)(=O)c1cc(Cl)ccc1Cl [FH535]; details: top dose 32 µM; top dose inferred
Procedure: (§1)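 Human cancer cell lines in 384-well plates, medium with 10% serum, drug for 72 h over a 256-fold dose range (nine 2-fold or five 4-fold steps up to the top dose). Adherent lines were fixed and stained with the nucleic acid dye Syto60, suspension lines read with resazurin; signal relative to control wells, capped at 0 and 100%. One two-parameter sigmoid per drug and line, fitted in a mixed model over all curves with the slope shared within a line.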

Dasatinib = compound: Cc1nc(Nc2ncc(C(=O)Nc3c(C)cccc3Cl)s2)cc(N2CCN(CCO)CC2)n1 [Dasatinib]; details: top dose 1.28 µM
Procedure: as §1

A-443654 = compound: Cc1n[nH]c2ccc(-c3cncc(OC[C@@H](N)Cc4c[nH]c5ccccc45)c3)cc12 [A-443654]; details: top dose 1.024 µM; top dose inferred
Procedure: as §1

AT-7519 = compound: O=C(NC1CCNCC1)c1n[nH]cc1NC(=O)c1c(Cl)cccc1Cl [AT-7519]; details: top dose 10.24 µM; top dose inferred
Procedure: as §1

XMD14-99 = compound: COc1cc(N2CCN(C)CC2)ccc1Nc1nc(N)c(C(=O)c2c(Cl)cccc2Cl)s1 [XMD14-99]; details: top dose 10.24 µM; top dose inferred
Procedure: as §1

Row | Cell Line | AUC (FH535) | IC50 (FH535) [nM] | AUC (Dasatinib) | IC50 (Dasatinib) [nM] | AUC (A-443654) | IC50 (A-443654) [nM] | AUC (AT-7519) | IC50 (AT-7519) [nM] | AUC (XMD14-99) | IC50 (XMD14-99) [nM]
1 | NCI-H1092 (small cell lung carcinoma, suspension) | 0.869 | 30000 | 0.978 | > 1280 | 0.873 | 994 | 0.627 | 1440 | 0.986 | > 10200
2 | KARPAS-45 (lymphoblastic leukaemia, suspension) | 0.649 | 4790 | 0.871 | 874 | 0.757 | 301 | 0.192 | 96.3 | 0.931 | > 10200
3 | KY821 (leukaemia, suspension) | 0.911 | > 32000 | 0.989 | > 1280 | 0.712 | 231 | 0.702 | 2170 | 0.992 | > 10200
4 | KELLY (neuroblastoma, adherent) | 0.732 | 8520 | 0.918 | > 1280 | 0.742 | 290 | 0.872 | 8230 | 0.989 | > 10200
5 | NCI-H1869 (lung squamous cell carcinoma, adherent) | 0.691 | 7430 | 0.749 | 464 | 0.873 | > 1020 | 0.652 | 1800 | 0.985 | > 10200
6 | OCI-LY-19 (B-cell lymphoma, suspension) | 0.812 | 15500 | 0.874 | 1080 | 0.717 | 249 | 0.278 | 159 | 0.903 | > 10200
7 | A498 (kidney, adherent) | 0.978 | > 32000 | 0.516 | 90.2 | 0.978 | > 1020 | 0.915 | > 10200 | 0.966 | > 10200
8 | NTERA-2 cl.D1 (testis, adherent) | 0.444 | 1410 | 0.549 | 109 | 0.384 | 30.9 | 0.584 | 1080 | 0.985 | > 10200
9 | QIMR-WIL (acute myeloid leukaemia, suspension) | 0.642 | 4870 | 0.734 | 364 | 0.72 | 263 | 0.421 | 393 | 0.924 | > 10200
10 | SIMA (neuroblastoma, adherent) | 0.77 | 13700 | 0.941 | > 1280 | 0.984 | > 1020 | 0.912 | > 10200 | 0.96 | > 10200
11 | MZ1-PC (pancreas, adherent) | 0.694 | 8040 | 0.397 | 38.8 | 0.544 | 87 | 0.481 | 561 | 0.911 | > 10200
12 | NCI-SNU-1 (stomach, suspension) | 0.748 | 10600 | 0.984 | > 1280 | 0.769 | 398 | 0.53 | 773 | 0.871 | > 10200
13 | HCC-33 (small cell lung carcinoma, adherent) | 0.903 | > 32000 | 0.984 | > 1280 | 0.838 | 703 | 0.567 | 978 | 0.981 | > 10200
14 | KP-N-YN (neuroblastoma, adherent) | 0.771 | 13500 | 0.964 | > 1280 | 0.913 | > 1020 | 0.979 | > 10200 | 0.981 | > 10200
15 | TK10 (kidney, adherent) | 0.686 | 7460 | 0.261 | 14.2 | 0.682 | 231 | 0.761 | 4380 | 0.976 | > 10200
16 | LB771-HNC (head and neck, adherent) | 0.525 | 2390 | 0.852 | > 1280 | 0.681 | 235 | 0.694 | 2610 | 0.968 | > 10200
17 | SK-MEL-2 (melanoma, adherent) | 0.424 | 1230 | 0.971 | > 1280 | 0.853 | 847 | 0.659 | 1800 | 0.985 | > 10200
18 | BT-474 (breast, adherent) | 0.645 | 5310 | 0.983 | > 1280 | 0.803 |  | 0.737 | 3350 | 0.986 | > 10200
19 | Becker (glioma, adherent) | 0.733 | 10100 | 0.394 | 39.4 | 0.727 | 310 | 0.835 | 7970 | 0.98 | > 10200
20 | L-363 (myeloma, suspension) | 0.684 | 6010 | 0.99 | > 1280 | 0.647 |  | 0.329 | 230 | 0.966 | > 10200

— the supplement of paper PMC4967469
